# Test results as given in the supplement of paper PMC7826260.
# The other results are listed elsewhere or left out. One pool of 16,384 single-stranded DNAs met each Rep nickase domain in vitro (1 h at 37 °C, 3 µM enzyme); the outer parts of the 90-letter strands are left off. Uncut reads are compared with the no-enzyme pool on a log2 scale; more negative means more cut, near 0 not cut, and no call is made. The scaling is to total reads; where an enzyme cuts many sequences, the uncut ones exceed 0.
# Tests used:
# Assay in all cases: uncleaved DNA left, log2 of reads against the no-enzyme library (log2 ratio); higher = less cleavage (more negative = more Rep cleavage of the k-mer); sequences stand for … in CTCGTCCG…ACCGGAGA
# [1] = system: T1, Rep nickase domain of Muscovy duck circovirus
# T1 sequence (residues 1-111, tag not shown): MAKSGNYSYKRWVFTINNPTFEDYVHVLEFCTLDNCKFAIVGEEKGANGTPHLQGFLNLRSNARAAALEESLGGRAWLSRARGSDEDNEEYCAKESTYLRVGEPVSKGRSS
# Description: (§1)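 A pool of 90-nt single-stranded DNAs with seven random bases just before the constant AC of the nick site (name = the seven bases) was cut by 3 µM recombinant His6-SUMO-tagged Rep nickase domain (300 nM DNA, 50 mM HEPES pH 8.0, 50 mM NaCl, 1 mM MnCl2, 1 h, 37 °C, three replicates). Uncut DNA was amplified and sequenced.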
# [2] = system: T2, Rep nickase domain of banana bunchy top virus
# T2 sequence (residues 1-94, tag not shown): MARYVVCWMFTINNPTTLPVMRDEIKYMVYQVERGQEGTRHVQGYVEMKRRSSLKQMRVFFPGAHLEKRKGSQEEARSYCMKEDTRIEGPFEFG
# Description: as §1
# [3] = system: T3, Rep nickase domain of cabbage leaf curl virus
# T3 sequence (residues 1-116, tag not shown): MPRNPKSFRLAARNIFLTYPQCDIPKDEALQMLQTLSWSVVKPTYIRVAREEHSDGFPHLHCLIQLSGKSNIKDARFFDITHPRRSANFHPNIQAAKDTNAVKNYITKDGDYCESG
# Description: as §1
# [4] = system: T4, Rep nickase domain of chickpea chlorotic dwarf virus
# T4 sequence (residues 1-124, tag not shown): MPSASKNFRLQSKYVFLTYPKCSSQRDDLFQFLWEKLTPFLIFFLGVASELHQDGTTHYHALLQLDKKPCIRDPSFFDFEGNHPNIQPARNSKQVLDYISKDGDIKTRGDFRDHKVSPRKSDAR
# Description: as §1
# [5] = system: T5, Rep nickase domain of faba bean necrotic yellows virus
# T5 sequence (residues 1-98, tag not shown): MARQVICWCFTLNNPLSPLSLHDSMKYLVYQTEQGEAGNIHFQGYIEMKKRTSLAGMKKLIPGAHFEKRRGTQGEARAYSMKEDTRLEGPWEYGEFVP
# Description: as §1
# [6] = system: T6, Rep nickase domain of maize striate mosaic virus
# T6 sequence (residues 1-117, tag not shown): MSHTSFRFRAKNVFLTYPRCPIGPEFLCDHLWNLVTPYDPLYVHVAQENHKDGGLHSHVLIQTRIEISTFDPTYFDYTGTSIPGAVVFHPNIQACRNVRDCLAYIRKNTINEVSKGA
# Description: as §1
# [7] = system: T7, Rep nickase domain of porcine circovirus 2
# T7 sequence (residues 2-116, tag not shown): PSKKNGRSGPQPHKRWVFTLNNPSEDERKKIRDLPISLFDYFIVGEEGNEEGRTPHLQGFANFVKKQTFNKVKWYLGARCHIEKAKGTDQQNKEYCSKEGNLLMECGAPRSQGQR
# Description: as §1
# [8] = system: T8, Rep nickase domain of tomato yellow leaf curl virus
# T8 sequence (residues 1-136, tag not shown): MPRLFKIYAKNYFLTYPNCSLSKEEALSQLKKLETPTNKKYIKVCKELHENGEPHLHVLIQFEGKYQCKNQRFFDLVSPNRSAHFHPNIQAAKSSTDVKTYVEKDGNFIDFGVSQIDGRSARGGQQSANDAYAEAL
# Description: as §1
# [9] = system: T9, Rep nickase domain of wheat dwarf virus
# T9 sequence (residues 1-137, tag not shown): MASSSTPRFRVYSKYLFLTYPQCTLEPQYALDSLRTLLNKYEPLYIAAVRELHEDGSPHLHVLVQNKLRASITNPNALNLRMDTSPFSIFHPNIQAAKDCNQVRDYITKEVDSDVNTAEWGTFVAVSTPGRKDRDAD
# Description: as §1
Sequence,uncleaved DNA left (log2) [1],uncleaved DNA left (log2) [2],uncleaved DNA left (log2) [3],uncleaved DNA left (log2) [4],uncleaved DNA left (log2) [5],uncleaved DNA left (log2) [6],uncleaved DNA left (log2) [7],uncleaved DNA left (log2) [8],uncleaved DNA left (log2) [9]
CTAATGT,0.0704,-0.12,0.127,-0.498,-0.00575,-0.828,-0.177,-0.0917,-0.102
CCGCCAA,-0.0849,-0.153,-0.0318,-0.334,-0.0303,-0.65,-0.249,-0.126,-0.089
ATCGGAC,-0.00728,-0.0557,0.359,1.16,-0.0262,1.34,0.128,0.00218,0.106
CGGTTGG,-0.0455,-0.069,-0.343,-0.221,0.0586,-0.584,0.146,0.0617,-0.0178
GAGTCTT,-1.51,-2.65,0.234,-0.889,-2.45,1.34,-3.6,0.143,0.0237
AATATGC,0.0672,-0.0359,-0.629,-0.469,0.0925,-1.13,0.156,0.0732,-0.0088
ACTGCTC,0.00279,0.0645,-0.0344,0.129,0.0507,-0.279,0.0063,0.0814,0.0206
CAGGCAC,0.0505,0.0573,-0.0488,0.17,-0.126,-0.282,0.0611,-0.00992,-0.00223
ACCCACT,-0.0412,0.0177,-0.447,-2.5,-0.0035,-0.841,-0.26,-0.0542,-0.145
CTTTCCA,-0.0808,0.0174,-0.00171,-1.33,-0.112,-0.494,-0.256,0.0342,0.0651
TACACTA,-0.0224,0.0167,-0.278,-2.69,0.0516,-0.642,-0.142,0.0458,0.0613
TAAATGA,-0.0338,0.0623,-0.289,-2.01,-0.102,-0.782,0.0382,-0.0211,-0.151
AGCGGGC,-0.0124,0.144,0.0405,0.342,-0.0949,0.0886,0.128,0.0267,0.0375
TCAGGGA,0.168,0.0978,0.269,0.983,0.0932,1.03,0.114,0.0372,0.154
TAAAACC,-0.149,0.0164,-1.95,-2.77,-0.00525,-0.888,-0.479,0.0304,-0.368
